# Data published in PubChem BioAssay AID504332 (National Center for Advancing Translational Sciences (NCATS), 2011).
# In all, about 350,000 compounds went through this assay and about 31,000 (8.9%) were called active. Inconclusive results, whose numbers are uncertain, are shown with a selection of clear calls. Calls come from the whole dose curve; as a rule, active = well fitted inhibition curve with a large enough effect; inconclusive = small, poorly fitted or top-dose-only effect; inactive = no such curve, though single readings can be large or run the other way. A potency beside an inconclusive call is a rough fit, not a confirmed value.
# Target: Histone-lysine N-methyltransferase EHMT2 (Homo sapiens) (UniProt Q96KQ7)
# UniProt Q96KQ7, sequence (Q96KQ7 whole entry, looked up): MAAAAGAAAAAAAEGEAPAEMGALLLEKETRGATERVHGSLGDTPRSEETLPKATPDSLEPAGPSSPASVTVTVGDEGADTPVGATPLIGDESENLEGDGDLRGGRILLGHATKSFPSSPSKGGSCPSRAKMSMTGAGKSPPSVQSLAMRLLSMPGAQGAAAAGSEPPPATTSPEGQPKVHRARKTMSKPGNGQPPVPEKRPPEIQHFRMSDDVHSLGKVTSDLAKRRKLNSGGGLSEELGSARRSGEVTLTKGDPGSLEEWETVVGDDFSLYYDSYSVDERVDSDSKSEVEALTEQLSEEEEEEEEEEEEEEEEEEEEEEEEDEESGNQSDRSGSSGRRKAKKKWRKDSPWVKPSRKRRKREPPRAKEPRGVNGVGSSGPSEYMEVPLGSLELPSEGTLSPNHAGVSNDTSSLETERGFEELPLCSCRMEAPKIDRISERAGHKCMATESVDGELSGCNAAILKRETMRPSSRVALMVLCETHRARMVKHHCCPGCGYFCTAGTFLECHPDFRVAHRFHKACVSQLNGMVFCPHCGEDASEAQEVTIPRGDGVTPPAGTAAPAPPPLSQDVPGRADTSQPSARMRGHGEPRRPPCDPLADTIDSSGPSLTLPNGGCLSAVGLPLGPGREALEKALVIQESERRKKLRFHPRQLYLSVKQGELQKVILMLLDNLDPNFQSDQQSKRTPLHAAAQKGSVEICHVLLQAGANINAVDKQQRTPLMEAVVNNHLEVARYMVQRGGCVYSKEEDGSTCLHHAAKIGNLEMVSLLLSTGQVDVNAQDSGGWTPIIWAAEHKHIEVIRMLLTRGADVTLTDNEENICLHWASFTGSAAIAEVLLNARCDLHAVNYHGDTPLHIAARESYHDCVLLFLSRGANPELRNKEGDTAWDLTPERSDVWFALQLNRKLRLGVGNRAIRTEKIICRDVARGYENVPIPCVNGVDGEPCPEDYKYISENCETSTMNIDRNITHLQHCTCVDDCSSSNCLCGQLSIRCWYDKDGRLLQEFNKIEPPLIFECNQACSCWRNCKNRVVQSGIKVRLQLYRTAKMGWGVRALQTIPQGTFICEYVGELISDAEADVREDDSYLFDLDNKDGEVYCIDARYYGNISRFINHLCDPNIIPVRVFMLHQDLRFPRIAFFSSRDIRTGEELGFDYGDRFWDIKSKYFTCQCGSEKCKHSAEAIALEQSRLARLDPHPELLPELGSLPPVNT
# Test: qHTS Assay for Inhibitors of Histone Lysine Methyltransferase G9a; note: nearly all actives have a fitted effect of over 75% in size
# Settings: G9a H3K9 monomethylation, AlphaScreen, 2 h; activity, negative = inhibition: at 59 µM (top of the series) unless noted
# Procedure, shortened: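 Step 1: enzyme (final 20 nM) with compound, 15 min RT. Step 2: substrate peptide 500 nM and SAM 20 uM, 2 h RT. Step 3: anti-H3K9me1 antibody and AlphaScreen beads, 10 min, then plate read.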
# % is set by controls: 0 for no effect and ±100 for the full control effect; potency is the fitted concentration of half-maximal effect; tags give direction and shape of the fitted curve.
Structure (SMILES),Potency,"activity, negative = inhibition"
CC(=O)Nc1ccc(NC(=O)Cc2sc(C)nc2-c2ccc(C)cc2)cc1,"inconclusive: 25.1 µM [inhibitor, single point]",
COC(=O)c1ccc(N2CCN(C)CC2)c(NC(=O)c2cccs2)c1,"inconclusive: 89.1 µM [inhibitor, partial curve, poor fit]",
CC(C)CCC(CC(C)O)c1n[nH]c(=S)n1-c1ccccc1 (stereo not given),active: 6.31 µM,
CC1CC(C)CN(c2cc3c(cc2[N+](=O)[O-])C(=O)N(c2ccccc2)C3=O)C1 (stereo not given),"inconclusive: 79.4 µM [inhibitor, partial curve, poor fit]",
COC(=O)c1sccc1NC(=S)N1CCN(C)CC1,"inconclusive: 44.7 µM [inhibitor, partial curve]",
COc1ccc(CC2(C)OC(c3ccc(C)c([N+](=O)[O-])c3)=NN2C(C)=O)cc1 (stereo not given),"inconclusive: 3.98 µM [inhibitor, full curve]",
CC(Nc1oc(-c2ccc(COc3ccccc3)o2)nc1C#N)c1ccccc1 (stereo not given),"inconclusive: 7.94 µM [inhibitor, partial curve, poor fit]",
CCNC(=O)Cc1ccc(NS(=O)(=O)c2ccc(F)cc2)cc1,"inconclusive: 39.8 µM [inhibitor, full curve]",
Cc1cc(C)cc(Oc2c(C(F)(F)F)oc3cc(OCC(=O)O)ccc3c2=O)c1,"inconclusive: 56.2 µM [inhibitor, partial curve, poor fit]",
Cc1nnc(SCC(=O)Nc2nnc(-c3ccccc3)o2)s1,active: 12.6 µM,
COc1ccccc1C1=CC(=O)C[C@H](c2ccc(F)cc2)C1,,inactive: -10.3% [at 0.501 µM]
CC(=O)Nc1ccc(S(=O)(=O)c2ccc(N)cc2)cc1,inactive,
CCOc1ccc(CNC(=O)c2cc3c(=O)oc4ccc(C)cc4c3s2)cc1,inactive,
Cc1ccc(CNC(=O)[C@@H](NC(=O)C2CCN(C(=O)[C@@H](N)CC(C)C)CC2)C(C)C)cc1,"inconclusive: 100 µM [inhibitor, partial curve, poor fit]",
O=C(/C=C/c1cccc2ccccc12)c1ccncc1,"inconclusive: 31.6 µM [inhibitor, single point]",
O=C(Nc1ccccc1Cl)c1ccc(-c2ccccn2)s1,inactive,
CN(C1=C(NC(=O)c2ccccc2)C(=O)c2ccccc2C1=O)C1CCS(=O)(=O)C1 (stereo not given),"inconclusive: 6.31 µM [inhibitor, partial curve, poor fit]",
O=C(COn1nnc2ccc(Cl)cc21)NC12CC3CC(CC(C3)C1)C2,"inconclusive: 15.8 µM [inhibitor, partial curve, poor fit]",
CC1CN(CCOc2ccc(Cl)cc2Cl)CC(C)O1 (stereo not given),"inconclusive: 39.8 µM [inhibitor, single point]",
Cc1cc(C)cc(C(=O)NN2CCN(C)CC2)c1,,inactive: 3.1% [at 12.7 µM]
O=C(NC(=S)Nc1ccc(-c2ccc(CO)o2)cc1)c1cccs1,"inconclusive: 89.1 µM [inhibitor, single point]",
CCN=C1SC(CC(=O)NCC)C(=O)N1CC (stereo not given),"inconclusive: 6.31 µM [inhibitor, single point]",
COc1ccc(C2C(C(=O)/C=C/c3ccco3)=C(O)C(=O)N2CCN2CCOCC2)cc1 (stereo not given),"inconclusive: 15.8 µM [inhibitor, full curve, poor fit]",
Cc1oncc1C(=S)Nc1ccccc1,"inconclusive: 28.2 µM [inhibitor, single point]",

Structure (SMILES),Potency,"activity, negative = inhibition"
Cc1ccccc1NC(=O)CSc1ccc(-c2cccnc2)nn1,inactive,
CCCCOc1ccc(C(=O)NNC(=O)C2C3CCC(C3)C2C(=O)O)cc1 (stereo not given),inactive,
CC1CCCCN1C(=O)c1ccc(OC2CCN(S(=O)(=O)N(C)C)CC2)cc1 (stereo not given),inactive,
Cc1cccc(OCC(O)CN2C(C)(C)CC(O)CC2(C)C)c1 (stereo not given),inactive,
Cc1ccc(S(=O)(=O)N2CCOc3ccccc32)c(C)c1NS(C)(=O)=O,inactive,
Fc1ccc(-n2cc(CNCCc3ccccn3)c(-c3ccccc3Cl)n2)cc1,"inconclusive: 0.0794 µM [inhibitor, full curve, poor fit]",
Cc1nc(NC(=O)c2ccccc2)sc1C1(C)CC(c2ccccc2F)=NO1 (stereo not given),,inconclusive: -54.8% [inhibitor]
CN(C)CCCN(C(=O)CCc1ccccc1)c1nc2ccc(F)cc2s1,"inconclusive: 89.1 µM [inhibitor, single point]",
Cn1c(=O)c2c(SCc3cccnc3)nc(CC(C)(C)C)nc2n(C)c1=O,inactive,
COc1cccc(NC(=S)N2CCc3cc(OC)c(OC)cc3C2COc2ccc3c(C)cc(=O)oc3c2)c1 (stereo not given),"inconclusive: 3.16 µM [inhibitor, single point]",
COc1cccc(-c2nc(CS(=O)CC(=O)NCc3ccccc3Cl)c(C)o2)c1 (stereo not given),active: 35.5 µM,
CC(Sc1nncs1)C(=O)NC1CCCCC1C (stereo not given),"inconclusive: 89.1 µM [inhibitor, single point]",
CCN1CCN(C(=O)/C=C/c2ccccc2[N+](=O)[O-])CC1,"inconclusive: 50.1 µM [inhibitor, partial curve]",
O=C(COCc1cc(-c2ccc(F)cc2)on1)Nc1cccc(C(F)(F)F)c1,inactive,
CCc1ccccc1NC(=O)Cn1c(=O)n(-c2ccc(C)cc2)c(=O)c2cc(OC)c(OC)cc21,inactive,
COc1ccc(-n2c(=O)c(-c3cn(C)c4ccccc34)nc3cnc(N4CCOCC4)nc32)cc1,,inactive: 10.8% [at 0.501 µM]
CC1CCCC(NC(=O)CCNC(=O)c2ccccc2Cl)C1C (stereo not given),"inconclusive: 63.1 µM [inhibitor, partial curve, poor fit]",
Cc1ccc(N(Cc2cc3ccc(C)cc3[nH]c2=O)C(=O)c2ccco2)c(C)c1,"inconclusive: 25.1 µM [inhibitor, single point]",
CC(C)CCN1CN(S(=O)(=O)c2cccs2)c2nc3ccccc3nc21,active: 15.8 µM,
Cc1ccc(OCC(=O)Nc2ccccc2[N+](=O)[O-])c(Br)c1,"inconclusive: 14.1 µM [inhibitor, full curve]",
CCOC(=O)C1CCN(C(=O)c2ccc3c(=O)n4c(nc3c2)CCCCC4)CC1,"inconclusive: 50.1 µM [inhibitor, partial curve]",
CN(C)CCCNc1oc(-c2ccccc2)nc1C#N,"inconclusive: 20 µM [inhibitor, single point]",
O=C(Nc1ccc2oc(-c3ccccc3Cl)nc2c1)c1ncn[nH]1,"inconclusive: 70.8 µM [inhibitor, single point]",
COc1ccc(OC)c(NC(=O)CSc2nc(=O)n(Cc3ccccn3)c3c2CCC3)c1,,inactive: 9.72% [at 0.501 µM]

Structure (SMILES),Potency,"activity, negative = inhibition"
CCCCn1c(N)c(N(CCOC)C(=O)c2cc(-c3ccco3)nc3ccccc23)c(=O)[nH]c1=O,active: 39.8 µM,
C=CCn1c(CNC(=O)c2ccco2)nnc1SCC(=O)N1c2ccccc2Sc2ccccc21,"inconclusive: 44.7 µM [inhibitor, partial curve, poor fit]",
COc1cc2c(c(OC)c1OC)C(c1ccc3c(c1)OCO3)CC(=O)O2 (stereo not given),"inconclusive: 25.1 µM [inhibitor, partial curve]",
CC(=O)/C(=C/c1ccc(N(C)C)cc1)C(=O)c1ccccc1,"inconclusive: 31.6 µM [inhibitor, single point]",
CCCn1c(SCC(=O)N2CC(=O)Nc3ccccc32)nc2ccccc21,active: 31.6 µM,
Cn1c(=O)sc2cc(NS(=O)(=O)c3ccc(C(C)(C)C)cc3)ccc21,"inconclusive: 11.2 µM [inhibitor, partial curve]",
Cc1ccc(S(=O)(=O)c2nc(-c3cccs3)oc2N2CCC(C)CC2)cc1,"inconclusive: 10 µM [inhibitor, partial curve]",
O=c1c2cc(-c3ccccc3)sc2nc2n1N=C(c1ccccc1)CS2,inactive,
CN(Cc1cccc(Cl)c1Cl)C(=O)c1cccc(S(=O)(=O)N2CCN(Cc3ccccc3)CC2)c1,"inconclusive: 79.4 µM [inhibitor, single point]",
COCCCNC(=S)N/N=C/c1ccc(N(C)C)cc1Cl,inactive,
CCC(C)NC(=O)/C(=C/c1ccco1)c1ccccc1 (stereo not given),,inactive: -48.8% [at 12.7 µM]
CCCNc1c(NS(=O)(=O)c2ccc(Cl)s2)c(=O)oc2ccccc12,inactive,
CCCCNC(=O)CSc1nc2cc3c(cc2c(=O)n1CCCC(=O)NCc1ccc(OC)cc1)OCO3,inactive,
COc1ccc(C(=O)Nc2ccc(-c3nnn(CC(=O)N4CCN(C(=O)c5ccco5)CC4)n3)cc2)cc1,active: 50.1 µM,
O=C(c1ccco1)N1CCN(C(c2ccc(F)cc2)c2nnnn2CC2CCCO2)CC1 (stereo not given),"inconclusive: 39.8 µM [inhibitor, single point]",
CC(C)CN(C(=O)CN1C(=O)NC(c2ccccc2)(c2ccccc2)C1=O)C1CCS(=O)(=O)C1 (stereo not given),,inactive: 16.1% [at 12.7 µM]
COc1cccc(NC(=O)/C=C/c2ccc([N+](=O)[O-])cc2)c1,active: 7.94 µM,
NC(=O)c1ccc(-n2nnnc2SCC(=O)Nc2ccccc2-c2ccccc2)cc1,inactive,
CC1CCN(C(c2ccc(N(C)C)cc2)c2nnnn2Cc2ccc(F)cc2)CC1 (stereo not given),,inactive: -5.22% [at 0.501 µM]
COCc1[nH]c(=S)[nH]c(=O)c1C,"inconclusive: 56.2 µM [inhibitor, single point]",
CC(C)(C)c1ccc(C(=O)Nc2cccc(-n3cnnn3)c2)cc1,,inactive: -9.83% [at 0.501 µM]
Cc1ccc(S(=O)(=O)N2CC(C)N(S(C)(=O)=O)C2)cc1 (stereo not given),"inconclusive: 22.4 µM [inhibitor, single point]",
